# The whole screen tested about 330,000 compounds, of which about 4,200 (1.3%) were called active. This list was built around the results that the source calls inconclusive (neither active nor inactive); the mix of calls is not that of the screen. Calls come from the whole dose curve; as a rule, active = well fitted activation curve with a large enough effect; inconclusive = small, poorly fitted or top-dose-only effect; inactive = no such curve, though single readings can be large or run the other way. A potency beside an inconclusive call is a rough fit, not a confirmed value.
# Assay: qHTS screen for small molecules that induce genotoxicity in human embryonic kidney (HEK293T) cells expressing luciferase-tagged ELG1; note: nearly all actives have a fitted effect of over 60% in size
# Details: HEK293T ELG1-luciferase reporter, luminescence, 16 h; series mostly up to 46 µM
# Outline: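 After overnight (16 hr) compound treatment at 37 °C, ELG1-luciferase HEK293T cells were lysed with ONE-Glo; luminescence quantified 30 min later at room temperature.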
# Potency is the fitted concentration of half-maximal effect; tags give direction and shape of the fitted curve.
row,Structure (SMILES),Potency
1,Cc1cc(NC(=O)c2ccccc2[N+](=O)[O-])ccc1Br,"inconclusive: 16.4 µM [activator, partial curve, poor fit]"
2,O=C(CCCn1cc([N+](=O)[O-])cn1)Nc1ccc2c(c1)OCO2,inactive
3,CC(C)(C)NC(=O)NC(=O)COC(=O)c1ccc(OC(F)F)cc1,"inconclusive: 0.92 µM [activator, single point]"
4,Cc1cc(C)c(S(=O)(=O)/N=C2\C=C(Nc3ccc(C(=O)O)cc3)C(=O)c3ccccc32)c(C)c1,inactive
5,c1ccc(-c2cc3nccc(-c4ccccn4)n3n2)cc1,"inconclusive: 10.3 µM [activator, partial curve]"
6,Cc1ccc(C(NC(=O)CN2C(=O)NC3(CCCC3)C2=O)c2ccccc2)cc1 (centres undefined),inactive
7,Cc1ccc(CCNC(=O)c2nn(C)c3c2CS(=O)(=O)c2ccccc2-3)cc1,inactive
8,Cn1nnc2cc(C(=O)N3CCC(c4ccccc4)C3)ccc21 (centres undefined),"inconclusive: 25.9 µM [activator, partial curve, poor fit]"
9,O=c1oc2c(CN3CCCCC3)c(O)ccc2cc1-c1nc2ccccc2[nH]1,"inconclusive: 13 µM [activator, partial curve]"
10,Cc1ccc(Cn2cc(SCC(=O)Nc3nccs3)c3ccccc32)cc1,"inconclusive: 7.31 µM [activator, full curve]"
11,COc1cc(Cl)ccc1NC(=S)N(CCN1CCOCC1)C1CCN(C(C)=O)CC1,inactive
12,S=c1[nH]nc(-c2cccs2)n1/N=C/c1cn(-c2ccccc2)nc1-c1cccs1,"inconclusive: 8.2 µM [activator, partial curve, poor fit]"
13,O=C(CN1CCc2ccccc2C1)Nc1ccc(Br)cc1,inactive
14,O=C(c1ccc(OC(F)(F)F)cc1)c1ncc[nH]1,"inconclusive: 20.6 µM [activator, single point]"
15,Oc1ccc(N=C/C=C/c2cccc(Br)c2)cc1-c1nc2ccccc2s1,"inconclusive: 18.4 µM [activator, single point]"
16,COc1ccc(C(=O)N/C(=C\c2cn(S(=O)(=O)N(C)C)c3ccccc23)C(=O)NCCCN2CCOCC2)cc1,inactive
17,Cc1cc(NC(=O)CSc2ccc(-c3nc4cc(C)c(C)cc4[nH]3)cn2)no1,"inconclusive: 4.11 µM [activator, partial curve]"
18,Cc1ccc(NN=C2c3ccccc3-c3ccccc32)cc1,"inconclusive: 32.6 µM [activator, partial curve, poor fit]"
19,O=C(CN1CCC(C(=O)c2ccc3c(c2)OCCO3)CC1)NCc1ccc(F)cc1,inactive
